Measured values: article PMC4336329 (PLoS ONE, 2015)
The whole screen tested about 310,000 compounds, of which about 14,000 (4.5%) showed an effect of 50% or more. The effect is printed as a negative number. This is one part of the list.

Target: human ether-à-go-go-related gene (hERG) potassium channel (human, UniProt Q12809)
Test: primary screen, population patch clamp on CHO cells stably expressing hERG
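Also: peak tail current of the secondary pulse compared with the same well before compound.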

Sequence of human ether-à-go-go-related gene (hERG) potassium channel (Q12809 whole entry, looked up): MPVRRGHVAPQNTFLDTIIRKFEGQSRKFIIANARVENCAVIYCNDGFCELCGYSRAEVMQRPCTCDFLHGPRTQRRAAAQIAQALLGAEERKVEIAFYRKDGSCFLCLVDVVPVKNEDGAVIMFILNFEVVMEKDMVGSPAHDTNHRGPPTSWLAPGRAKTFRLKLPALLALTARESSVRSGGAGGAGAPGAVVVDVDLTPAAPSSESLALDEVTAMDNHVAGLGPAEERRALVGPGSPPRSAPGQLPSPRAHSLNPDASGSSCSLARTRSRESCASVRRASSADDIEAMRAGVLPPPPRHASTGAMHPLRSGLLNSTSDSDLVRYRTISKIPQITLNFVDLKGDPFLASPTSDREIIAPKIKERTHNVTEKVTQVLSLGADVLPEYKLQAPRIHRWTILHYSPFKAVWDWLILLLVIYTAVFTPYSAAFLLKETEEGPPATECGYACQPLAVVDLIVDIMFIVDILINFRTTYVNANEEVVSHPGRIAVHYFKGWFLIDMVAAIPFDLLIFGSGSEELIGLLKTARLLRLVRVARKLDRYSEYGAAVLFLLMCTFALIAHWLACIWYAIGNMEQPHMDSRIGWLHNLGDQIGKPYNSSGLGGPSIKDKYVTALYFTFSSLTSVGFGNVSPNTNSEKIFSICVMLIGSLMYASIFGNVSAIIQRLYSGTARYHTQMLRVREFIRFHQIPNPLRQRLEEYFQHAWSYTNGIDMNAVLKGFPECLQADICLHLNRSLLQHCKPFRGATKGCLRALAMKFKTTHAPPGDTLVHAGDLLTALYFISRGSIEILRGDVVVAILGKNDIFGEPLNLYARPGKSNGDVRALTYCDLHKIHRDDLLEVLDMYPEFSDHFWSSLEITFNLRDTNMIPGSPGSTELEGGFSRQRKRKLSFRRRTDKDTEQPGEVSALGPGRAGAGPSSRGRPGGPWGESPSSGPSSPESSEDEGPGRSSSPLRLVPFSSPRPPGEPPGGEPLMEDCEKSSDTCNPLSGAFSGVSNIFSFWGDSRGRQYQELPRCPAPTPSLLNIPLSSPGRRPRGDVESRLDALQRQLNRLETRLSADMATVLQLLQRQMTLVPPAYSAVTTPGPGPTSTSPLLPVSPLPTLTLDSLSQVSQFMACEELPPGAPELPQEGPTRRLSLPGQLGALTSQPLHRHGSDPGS

Structure (SMILES) | hERG current change (%, negative = inhibition) at 10uM [%]
C=CCOc1ccc(/C=C/C(=O)OCC(=O)NCc2cccs2)cc1 | 9.06
CC(=O)c1cccc(S(=O)(=O)N2CCC(C(=O)O)(c3ccccc3)CC2)c1 | 19.4
CCn1c(SCC(=O)c2ccccc2)nnc1-c1cccnc1 | -14.5
COC(=O)c1ccccc1CSc1nsc(/C=C/N(C)C)c1C#N | 17.3
Cc1ccc(-c2noc(C3CCCN(C(=O)c4cccc(F)c4)C3)n2)cc1 (stereo not drawn) | 0.64
COc1ccc(C)cc1NC(=O)C1CCCN1C(=O)OCc1ccccc1 (stereo not drawn) | -6.78
O=C(c1ccco1)N1CCN(C(=S)Nc2ccc(Br)cc2Cl)CC1 | -44.7
CCCOc1ccc(-c2nnn(CC(=O)c3c[nH]c4ccccc34)n2)cc1 | 3.23
COc1cccc(/C=C2\SC(=N)N(c3ccc(F)cc3)C2=O)c1 | 9.22
CCOc1ccccc1NC(=O)Cn1cnc2c(cnn2-c2ccc(C)c(C)c2)c1=O | 11
CCc1ccc(S(=O)(=O)NC(=S)NC2CCCCC2)cc1 | 17.2
CCCc1nnc(NC(=O)c2ccc([N+](=O)[O-])cc2)s1 | -3.29
CSc1cc(C)n(-c2ccc(Cl)cc2)c(=S)c1C(C)=O | -33.9
CC(=O)c1ccc(OCc2cc(C(=O)NC(C)CCn3cccn3)no2)cc1 (stereo not drawn) | 4.34
NS(=O)(=O)c1ccc(CNC(=O)NC23CC4CC(CC(C4)C2)C3)cc1 | -5.83
c1csc(C2CCCN2c2nc3nonc3nc2NC2CC2)n1 (stereo not drawn) | 11.4
COc1cccc(Oc2cc(Cl)nc(N)n2)c1 | -6.51
CCc1noc(C)c1C(=O)Nc1nc(-c2ccc(Cl)cc2Cl)cs1 | -4.11
Cc1ccc(-n2c(O)c(C=N)c(=O)n(-c3ccc(C)cc3)c2=O)cc1 | -8.85
Cc1cc(NC(=O)/C(C#N)=C/c2ccc(-c3cccc(C(F)(F)F)c3)o2)n(-c2ccccc2)n1 | -16.4
CC(OC(=O)CC1CCCCC1)C(=O)Nc1cccc(C#N)c1 (stereo not drawn) | -25
CN1C(=O)C(=Cc2ccccc2Oc2ccc(Cl)cc2)C(=O)N(C)C1=O | -7.42
CSc1ccc(S(=O)(=O)N2c3ccccc3CC2C)cc1 (stereo not drawn) | 2.29

Structure (SMILES) | hERG current change (%, negative = inhibition) at 10uM [%]
CCn1ncc(/C=C2/SC(=S)NC2=O)c1C | 23.6
COCCCN1C(=O)CS/C1=N\S(=O)(=O)c1ccccc1 | -4.81
Cc1ccc(OCC(=O)Nc2cc(S(=O)(=O)N3CCOCC3)ccc2Cl)c([N+](=O)[O-])n1 | -19.2
CCn1c(SCC(=O)Nc2ccc(N3CCOCC3)c(Cl)c2)nnc1-c1ccc(N)cc1 | 0.885
CC1Cc2ccccc2N1CC(=O)Nc1ccc(N2CCOCC2)cc1 (stereo not drawn) | -13.5
CCN(CC)CCNC(=O)c1ccc2c(c1)ncn2C1CCCCC1 | -7.07
CCSC1(SCC)N=C(N)C2(C#N)C(c3ccc(OC)c(OC)c3OC)C12C#N (stereo not drawn) | -22.3
CC(=O)c1c(C)c[nH]c1C | 19.5
O=C(COc1ccc(F)cc1Cl)Nc1cc(S(=O)(=O)N2CCOCC2)ccc1N1CCCCC1 | 4.24
Cc1ccc(C(=O)C2CCN(S(=O)(=O)c3c(C)noc3C)CC2)cc1 | -67.3
c1ccc(-c2nnc3sc(Cc4cccs4)nn23)cc1 | -30.8
COc1cc(NC(=O)Nc2ccccc2)c(OC)cc1NC(=O)CN1CCCCC1 | -32.1
CCCCN(CCCC)S(=O)(=O)c1ccc(SCC(=O)OCC)c([N+](=O)[O-])c1 | 3.61
CCOc1ccc(OCCn2nnc3ccccc3c2=O)cc1 | 17.9
CCCCOc1ccc(S(=O)(=O)NNC(=O)C2Cc3c(ccc4ccccc34)O2)cc1 (stereo not drawn) | 9.49
COc1ccccc1CN1CCNC(=O)C1CC(=O)O (stereo not drawn) | 7.68
COC(=O)Cc1cc(=O)n(-c2ccccc2)[nH]1 | -0.509
CCc1nc2ccc(C(=O)N(C)CC(=O)Nc3cccc(F)c3)cc2nc1CC | -10.5
Cc1ccc(-c2nnn(CC(=O)NCC3CC3)n2)o1 | 12.8
CCOc1ccc(C(=O)OCC(=O)Nc2ccc(SC(F)F)cc2)cc1OCC | 3.55
CCn1c(=N)n(CCO)c2ccccc21.Cl | 5.84
CCS(=O)(=O)N1CCN(C(=O)c2cccnc2)CC1 | -6.19
